# Data from the supplement of paper PMC11417369.
# The other results are listed elsewhere or left out.
# System: PfAP2-HC AP2 domain (GST-tagged)
# Assay: gcPBM binding intensity (ln(normalized median fluorescence intensity)); higher = stronger DNA binding
# Summary of the method: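 Plasmodium falciparum DNA-binding domains carrying a GST tag were expressed in E. coli and applied for 1 h, at about 25 μg on average, to an Agilent 4 × 180k array. The array held primer-extended double-stranded 36-bp intergenic genomic probes together with negative controls, and binding took place in 1× PBS with 1% milk, 0.2 mg/ml BSA, 0.5% salmon testes DNA and 0.03% Triton X-100. An Alexa488 anti-GST antibody detected bound protein, and the array was scanned at 488 nm. Binding intensity is taken as the highest Masliner-normalised natural-log median intensity across replicate spots of either probe orientation.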
row,Sequence,gcPBM binding intensity (ln)
1,ACCATATGTACATTTTTTTTTTTTTTTTTTTTTTTT [CACACA_negctrl_site1188],9.74
2,ACATTCAAGCGTAATTGTACATACATATATATATAT [XGTACX_site8876],10
3,ATGTATATAAATAGTAGTACATTATTTCACACTGTA [XGTACX_site2061],9.71
4,TATTGTATCCTTAATGCATGCACCAAATAAAAAAAG [TGCATGCA_site541],9.57
5,AAAAAAAAAAAAAAAGCACACACCAATGAGCAGCTT [CACACA_site1845],9.84
6,CACACCCACAGACACACACACACATATATAATATAT [CACACA_site594],11.4
7,TATAATCATATACACGCATGTATAAAATTTAATACT [TGCATGCA_site700],9.74
8,ATATGTTACAAAGATTGTACTTATTAAGGAGCGACT [XGTACX_site5094],9.66
9,TAATATATGTATTATGCATGTGAATAAGCACTTGAT [TGCATGCA_site848],9.54
10,TGTAAACATAAGATATGTACTTATATCATATTATAA [XGTACX_site6883],9.6
11,ATGACAATTCAAAATTGTACATAAAAAAAAAAAAAA [XGTACX_site7560],9.45
12,AAATAAAAATAAAATAAAATAAAATTAAATGGGAAT [GTGCAC_negctrl_site349],9.83
13,GTTTTATATTATATATGTACATATCCATGAGATATA [XGTACX_site3328],9.75
14,TTTAACTTTTATATAACACACATATTGTAATTATGT [CACACA_site6486],9.99
15,TTCATATGTTTTAACACACACGCATATATTATATAT [CACACA_site2007],10.1
16,AAAAAAATTTGGCATACACACACACCCCCACCCACA [CACACA_site8094],10.6
17,AAAAAACATTTTCGAGTGCATGTTTTGCTTTATTTC,9.64
18,AATAATTTGGTCTTATCAAAAATTAAAAATAAATAA [XGTACX_negctrl_site430],9.41
19,TTAAATGTTAAAAGGGTGCTATTATATAAATGAAAA [GTGCAC_site9882],9.48

row,Sequence,gcPBM binding intensity (ln)
1,TATAAATATAGACACACACACACCAAAGCGTAGCGC [CACACA_site6179],10.3
2,TATATATATTATAATACATGCGGTGATGAAAGTTAT [TGCATGCA_site924],9.94
3,TATGAAGTACACAATACACACTAATTATATATAAAT [CACACA_site5444],9.91
4,TTTTTAAAAAAACATACACACAAAAAAAAAAAAAAA [CACACA_site3935],9.31
5,TTTTTTTATATAGACACAAAAGAAAATTACATATAC [CACACA_negctrl_site235],9.23
6,TATAATATATATATATTTATATATATCTTCCTAATC [GTGCAC_negctrl_site682],9.59
7,AAAAAAAAAAAAAAAACACACAAGGATCATATATAT [CACACA_site3812],10
8,AATATTTATTTTATATGTACATAATTTATTTTTAAT [XGTACX_site776],9.71
9,GATTTGTCTTACAGTGGTACACTTATATATATGTGA [XGTACX_site2899],9.74
10,TATATTATATTTTTATGTACATATATGTTTTTTTTT [XGTACX_site8239],9.84
11,AATAAAAATATATCCACACACATATATATATCTGTA [CACACA_site4481],9.98
12,ATTTTATCAAGAGGAAGTACATTACCCCATGAAAAA [XGTACX_site8295],9.44
13,AATATAAATAATAGTAGTACATATATATCTCAGAAA [XGTACX_site4055],9.81
14,AATGGAGTTTATAAGTATAAACGAGGGATACCTAAA [XGTACX_negctrl_site483],9.69
15,TAAATAAATTTATACACACACACACCCATATATATA [CACACA_site849],10.9
16,TTATGTTGTAAATGCACACATACATATACGCAGTTT [CACACA_site3015],9.83
17,CAATTTTACTCATAAACACACATATAGATGTTATTA [CACACA_site7474],9.6
18,TATATATATATATGATGTACATGAAAATTTCCAAAA [XGTACX_site5472],9.75
19,TATATTTTTTAATTCACACAAAAATGAAAAATATTT [CACACA_site6001],9.41

row,Sequence,gcPBM binding intensity (ln)
1,ATATCTGAAGTGTAAAGTACATATATATATTCATAT [XGTACX_site4612],9.67
2,ACATAATAAAAATAAATTCATAAGTAAATAAATAAA [TGCATGCA_negctrl_site186],9.68
3,TGCTACATTTTATGTACACACATATACAGATATATA [CACACA_site4646],9.85
4,TGAATAAATCAAAGCACACATACACCCACATATATA [CACACA_site286],10.2
5,AATAATATTTAATACACACACCAGTTCTGCAAATTT [CACACA_site7712],10
6,GAAAAAAGAAATTAAACATGCATCTGCAAATTTAAA [TGCATGCA_site974],9.55
7,AATAGTAAAAGATATACACACACCAAAAAATATAAT [CACACA_site5293],10.3
8,TTACACATGTTTAACTGTACACATAATAGCAATATT [XGTACX_site8545],9.68
9,ACAATTATTTTGTTCTTTAATGGTAGGTTCTATGTC [CACACA_negctrl_site1419],9.54
10,CATAAATTACTTTTTACACACTAAAATAAAATACAA [CACACA_site1135],9.65
11,AATACACGCAGACACACACACACACGCACATATATA [CACACA_site6447],10.8
12,CTAAAAAATAGTAAAAGTACATAAATAATTTTGCTT [XGTACX_site8919],9.6
13,TTATATATTTTTATGTGTACTTATATATATATATAT [XGTACX_site6211],9.77
14,ATTTCCCTATATAGAGCATGCACTATATTCAAATGA [TGCATGCA_site531],9.58
15,CACAAAGACACAAACACACACACACCCACATACATA [CACACA_site452],10.5
16,AACAAAAACACTTTTACACACATAAGTAAAATATAT [CACACA_site1994],9.91
17,TACTTATTTAAAATAGTGCATGAATAGAAGATATAT [GTGCAC_site9756],9.59
18,AAAAAAAAATATAACAGTACATAAACATATGAATAT [XGTACX_site7093],9.71
